In US20210101998A1:

B1: TFPI-26 (antibody, human IgG1, lambda)
light: QSVLTQPPSLSGAPGQRVTISCTGSSSNLGADYDVQWYQQLPGTAPKLLIFGNNNRPSGVPDRFSGSRSGTSASLAITGLQAEDEANYYCQSYDRSLSGSMVFGGGTKLTVLGQPKAAPSVTLFPPSSEELQANKATLVCLISDFYPGAVTVAWKADSSPVKAGVETTTPSKQSNNKYAASSYLSLTPEQWKSHRSYSCQVTHEGSTVEKTVAPTECS
heavy: [omitted - about 100 residues]NGAAAAWDYWGQGTLVTVSSASTKGPSVFPLAPSSKSTSGGTAALGCLVKDYFPEPVTVSWNSGALTSGVHTFPAVLQSSGLYSLSSVVTVPSSSLGTQTYICNVNHKPSNTKVDKKVEPKSCDKTHTCPPCPAPEAAGAPSVFLFPPKPKDTLMISRTPEVTCVVVDVSHEDPEVKFNWYVDGVEVHNAKTKPREEQYNSTYRVVSVLTVLHQDWLNGKEYKCKVSNKALPAPIEKTISKAKGQPREPQVYTLPPSREEMTKNQVSLTCLVKGFYPSDIAVEWESNGQPENNYKTTPPVLDSDGSFFLYSKLTVDKSRWQQGNVFSCSVMHEALHNHYTQKSLSLSPG
B2: hz4F36 (antibody, human IgG4 S228P, kappa)
light: DIVMTQTPLSLSVTPGQPASISCKSSQSLLESDGKTYLNWYLQKPGQSPQLLIYLVSILDSGVPDRFSGSGSGTDFTLKISRVEAEDVGVYYCLQATHFPQTFGGGTKVEIKRTVAAPSVFIFPPSDEQLKSGTASVVCLLNNFYPREAKVQWKVDNALQSGNSQESVTEQDSKDSTYSLSSTLTLSKADYEKHKVYACEVTHQGLSSPVTKSFNRGEC
heavy: EVQLVESGGGLVKPGGSLRLSCAASGFTFSNYAMSWVRQTPEKRLEWVATISRSGSYSYFPDSVQGRFTISRDNAKNSLYLQMNSLRAEDTAVYYCARLGGYDEGDAMDSWGQGTTVTVSSASTKGPSVFPLAPCSRSTSESTAALGCLVKDYFPEPVTVSWNSGALTSGVHTFPAVLQSSGLYSLSSVVTVPSSSLGTKTYTCNVDHKPSNTKVDKRV[omitted - human IgG4 Fc with S228P (EU numbers)]

Target: endogenous TFPI in human plasma (human), P10646
Test: cell-based or functional assay

| Binder | TGA Velocity Index at 20 nM | Dilute PT EC50 [nM] | TGA Velocity EC50 [nM] | dilute prothrombin time EC50 [nM] |
| --- | --- | --- | --- | --- |
| B1 | 18.6 | – | – | – |
| B2 | – | 0.44 | 1.7 | 0.44 |
